From publication PMC4336329 (PLoS ONE, 2015)
In all, about 310,000 compounds went through this assay and about 2,200 (0.71%) showed an effect of 50% or more. The effect is printed as a negative number. This is one part of the list.

Molecular target: human ether-à-go-go-related gene (hERG) potassium channel (human, UniProt Q12809)
Assay: primary screen, population patch clamp on CHO cells stably expressing hERG

human ether-à-go-go-related gene (hERG) potassium channel, sequence (Q12809 whole entry, looked up): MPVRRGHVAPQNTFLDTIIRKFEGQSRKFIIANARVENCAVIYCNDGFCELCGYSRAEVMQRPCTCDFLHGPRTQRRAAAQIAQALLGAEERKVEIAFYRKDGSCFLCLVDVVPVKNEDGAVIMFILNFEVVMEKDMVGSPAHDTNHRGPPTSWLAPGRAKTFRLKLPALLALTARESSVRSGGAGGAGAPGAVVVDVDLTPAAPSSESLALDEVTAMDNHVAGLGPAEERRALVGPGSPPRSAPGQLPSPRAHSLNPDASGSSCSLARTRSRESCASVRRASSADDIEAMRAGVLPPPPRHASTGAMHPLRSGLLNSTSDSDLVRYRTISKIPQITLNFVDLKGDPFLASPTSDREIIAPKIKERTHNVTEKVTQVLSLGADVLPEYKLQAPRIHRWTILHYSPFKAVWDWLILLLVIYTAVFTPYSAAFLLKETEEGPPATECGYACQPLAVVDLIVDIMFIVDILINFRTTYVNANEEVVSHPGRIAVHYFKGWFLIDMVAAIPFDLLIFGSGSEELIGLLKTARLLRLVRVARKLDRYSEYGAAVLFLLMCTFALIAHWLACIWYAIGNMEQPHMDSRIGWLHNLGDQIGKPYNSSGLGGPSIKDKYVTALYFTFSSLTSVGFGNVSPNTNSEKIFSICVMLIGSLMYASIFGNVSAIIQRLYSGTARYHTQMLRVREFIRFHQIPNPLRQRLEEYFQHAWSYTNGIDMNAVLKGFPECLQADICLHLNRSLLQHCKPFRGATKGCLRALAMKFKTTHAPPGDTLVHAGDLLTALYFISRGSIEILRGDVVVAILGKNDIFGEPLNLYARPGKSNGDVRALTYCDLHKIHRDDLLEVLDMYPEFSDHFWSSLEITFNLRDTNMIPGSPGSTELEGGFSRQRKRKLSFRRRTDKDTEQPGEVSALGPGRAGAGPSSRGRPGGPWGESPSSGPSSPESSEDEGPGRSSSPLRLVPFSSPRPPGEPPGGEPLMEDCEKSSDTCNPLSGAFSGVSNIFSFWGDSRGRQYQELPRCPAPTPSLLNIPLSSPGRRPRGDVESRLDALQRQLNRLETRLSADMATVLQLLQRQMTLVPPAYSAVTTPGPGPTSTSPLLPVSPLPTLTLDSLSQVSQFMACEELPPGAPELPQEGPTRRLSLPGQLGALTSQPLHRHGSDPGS

Compound | hERG current change (%, negative = inhibition) at 1uM [%]
CCOC(=O)CC1=C(C(=O)OCC)C2(C(=O)Nc3ccccc32)C(C#N)=C(N)O1 (centres unmarked) | 5.54
NS(=O)(=O)c1ccc(NS(=O)(=O)c2ccc3c(c2)OCCO3)cc1 | 14.3
CC(=O)Nc1ccc(S(=O)(=O)NCCC(=O)OCC(=O)NNC(=O)c2ccccc2)cc1 | -0.169
Cc1ccc(C(=O)OC(C)C(=O)NC2CCCCC2C)cc1S(=O)(=O)N1CCOCC1 (centres unmarked) | 9.52
Cc1cc(Cl)ccc1OCCCC(=O)NNC(=O)c1ccccc1O | 8.86
COC(=O)c1c(NC(=O)CSc2nnnn2-c2ccccc2)sc2c1CCC(C(C)(C)C)C2 (centres unmarked) | -2.67
COc1cccc(NC(=O)Nc2cc(C(=O)O)ccc2N2CC3CC(C2)c2cccc(=O)n2C3)c1 (centres unmarked) | 14.3
COc1ccc(C(=O)N/N=C/c2ccc(OC)c(OS(=O)(=O)c3ccccc3)c2)cc1 | 17.3
CC(=O)Oc1c(C(C)C)cc(N(C(C)=O)c2ccccc2)cc1C(C)C | 12.1
O=C(/C=C/c1ccc(Cl)cc1Cl)OCC(=O)N1CCCC1 | 5.54
Cn1cccc1Cc1nnc(SCC(=O)N2CCN(c3ccccc3)CC2)n1-c1ccc(F)cc1 | 13.8
O=C(Nc1ccc2c(c1)OCO2)c1cccs1 | 18.7
Cc1cc(NC(=O)CSc2nnc(-c3cccnc3)n2Cc2ccccc2)no1 | 3.85
COc1ccc(C(=O)NNS(=O)(=O)c2ccc(C)cc2)cc1 | 0.298
Cc1cc(C)nc(NS(=O)(=O)c2ccc(N=Cc3c(O)n(C)c(=O)n(C)c3=O)cc2)n1 | 10.5
Cn1c(SCC(=O)NNC(=O)Nc2ccc(Cl)cc2)nnc1-c1ccccc1 | 8.98
CCOC(=O)Cn1cnc2c(nnn2-c2cccc(OC)c2)c1=O | 17
Cc1noc(C)c1-c1nc(CS(=O)(=O)c2ccc(Cl)cc2)no1 | 7.64
COc1ccc([N+](=O)[O-])cc1N(CC(O)CN1CCCC1)S(=O)(=O)c1ccc(C)cc1 (centres unmarked) | 14.7
O=C(O)CSc1ccc(Oc2ccc(SCC(=O)O)cc2)cc1 | 11.5
O=S1(=O)CCOC[C@H](CC2CCCCC2)N1Cc1ccc(Cl)cc1 | 12.1
O=[N+]([O-])c1ccc(NCCNS(=O)(=O)c2ccccc2)c(C(F)(F)F)c1 | 11.6

Compound | hERG current change (%, negative = inhibition) at 1uM [%]
C=C(C)Cn1c(Sc2nc3ccccc3[nH]2)nc2c1c(=O)[nH]c(=O)n2C | -2.23
O=C(CN1CCOCC1)NNC(=S)Nc1ccccc1 | 0.729
O=C(COC(=O)C1=NN(c2ccccc2)C(=O)CC1)Nc1ccc([N+](=O)[O-])cc1C(F)(F)F | 9.29
COC(=O)[C@H](CCSC)NC(=O)Nc1ccc(S(N)(=O)=O)cc1 | 6.1
CN1CCN(c2ccc(S(=O)(=O)N3CCOCC3)cc2NC(=O)COc2ccc(F)cc2Cl)CC1 | 2.88
NC(=O)COC(=O)c1cc([N+](=O)[O-])ccc1NCCO | -3.71
CC1CCN(C(=O)COC(=O)C(C)N2C(=O)c3ccccc3C2=O)CC1 (centres unmarked) | -2.2
O=C1c2ccccc2C(Nc2cccnc2)N1Cc1ccccc1Cl (centres unmarked) | 2.59
CC(C)c1nnc(NC(=O)C2CCN(C(=O)Nc3ccccc3)CC2)s1 | 5.36
O=C(CSc1nnc(-c2cccc(S(=O)(=O)N3CCOCC3)c2)n1C1CCCCCC1)NCc1ccccc1 | -1
CCOCCCNC(=O)c1ccc2c(c1)ncn2-c1ccccc1OC | 5.65
CCn1c(=O)c(=O)[nH]c2cc(C(=O)NCC3CCCCC3)ccc21 | 0.63
O=C(Nc1ccc(N2CCOCC2)cc1)c1cnccn1 | 19.2
CN1CCCC(C(=O)c2ccccc2)C1.O=C(O)/C=C/C(=O)O (centres unmarked) | 10.8
Cc1ccc(NC(=O)CSc2ccccn2)cc1S(=O)(=O)N1CCOCC1 | 12.5
CS(=O)(=O)N1CCc2cc(C(=O)NC3CC3)ccc21 | 19.1
C/C(CC(=O)Nc1ccc(OCc2ccccc2)cc1)=N\NC(=O)C(=O)Nc1ccc(C)c(Cl)c1 | 10.9
O=C(NCc1ccc2c(c1)OCO2)Nc1ccc2ccccc2c1 | 13.9
CCCC(=O)NNC(=O)Nc1ccccc1 | 15.5
Cc1cc(SCNC(=O)c2ccccc2)nc(C(C)C)n1 | 8.47
COc1ccc(CNc2nc(-c3ccccc3)nc3ccccc23)cc1OC | 15.6
c1ccc(Cn2nnc3c(NCCN4CCOCC4)ncnc32)cc1 | 8.74
